# Over roughly 1,800 sequences, “median log2 fold change of GCK-ALFA target abundance (FLAG IP / Myc IP barcode read proportion)” has its median near 0.14; the lowest 2% begin near -0.84. The list shows a part of the results.
# T1: TRAF2, Q12933
# T1 chain: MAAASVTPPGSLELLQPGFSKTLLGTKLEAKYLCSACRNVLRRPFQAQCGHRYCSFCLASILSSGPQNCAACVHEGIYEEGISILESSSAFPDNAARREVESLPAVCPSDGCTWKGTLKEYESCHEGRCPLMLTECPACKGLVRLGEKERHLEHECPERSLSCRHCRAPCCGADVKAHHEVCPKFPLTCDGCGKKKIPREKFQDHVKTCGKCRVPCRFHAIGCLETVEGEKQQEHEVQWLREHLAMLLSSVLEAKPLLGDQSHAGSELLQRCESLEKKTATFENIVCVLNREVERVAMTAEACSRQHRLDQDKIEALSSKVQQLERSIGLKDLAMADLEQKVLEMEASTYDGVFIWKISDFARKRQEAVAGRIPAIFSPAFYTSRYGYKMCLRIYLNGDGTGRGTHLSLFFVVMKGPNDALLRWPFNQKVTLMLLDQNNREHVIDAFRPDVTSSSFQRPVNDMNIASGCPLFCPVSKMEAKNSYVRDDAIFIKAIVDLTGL
# B1: traf2_out_6_156_2392 (protein)
# chain: TAEAILAETKAKLEELIEKMSKASEEKKIIYINKIAGVVYRALQRLRDAGASLEELEAFAAEVRAHLKEYADKYGLDEDTKNLLLSSINAVFDVALAEAK
# B2: traf2_out_11_169_790 (protein)
# chain: EEKERNRKIIDKALELNDEAKKKLKEKALELAKEAGLDVEEVKAIFEKHKNASFSAIAAALIAWFRSKGAEEAAAKLEEFYDELRDERNKKFSAFLKSLE
# B3: traf2_out_17_162_1535 (protein)
# chain: SPTEEKLKKLKKELEKLEEKKKELEEKLKKLKELSKEEITDLLVEASELKRKALELAEELEKLAKETGSPEAKKLAEKAKKLAEELQKIANKIYKELEKK
# B4: traf2_out_17_178_1742 (protein)
# chain: SKEEILKKISEYADELLDVSRDAAARLRAIAEAEGVLTPELRARLDEVARNSNVYALEEVAREVIARTSRAAEVQALLDETTAKMKELNKKIQEAVEKLE
# B5: traf2_out_17_178_1713 (protein)
# chain: SKEEARKEISAATDEMIDLAEAAAARLLEIAEADGSLSPEELAALRRARRLGSARTTLALMRAAIPKSPRAAEVQALLDEFEARYRELSKKIAEALKKYE
# B6: traf2_out_20_3_2139 (protein)
# chain: SELQKELEKQKAEALKLLKEAAKLADPETAARLKELAKRLKASKELSVSDQLVEFSEIRREVLELAEEARRAGKEELAALLEAAADALNKAMNILMQILE
# B7: traf2_out_16_104_1396 (protein)
# chain: EEEKQKEFEKIIEEAEKIAEELGRLANEIYKMMLKASEEEKKKLSDLLVEASEVRREALEFAVETKEELKKGGDLEKAKKKLEELKKKAKEVKEKAKELK
# B8: traf2_out_15_48_1362 (protein)
# chain: STEDLRATARRINDLIDATLDEVAAELRALLPKLPEEVRPLVERAIEVAENHRSINDTIALLDEAIAKVDPELAAKLQALRDRLRATQREASALFNATLK
# B9: traf2_out_16_104_1427 (protein)
# chain: GEEKEKRFEEIIKELKEIAERANEIANKAYKLYEKADEEKKEKISDLLVEASELRREALKAAIEAEEKLKEGGDLEEAEKALEELKKRLKEIEKKLKELE
# B10: traf2_out_17_178_1681 (protein)
# chain: SKEEERAKISAYTDELIDLTEATGAELLAAARADGRLTPEELAALEAARRRGSNRTFLALAERIAPRLSNAAEAAARLAAFRARARELEKKIAEAYKRYE
# B11: traf2_out_1_156_894 (protein)
# chain: SRTDEFYEEQKERFKNPERRELLTRVTDILIEAKEIAEEAKKDPRLEEILKEAERLIEEAKRLYSRILSATEEELPELREEVERLEEELRELKARFEAAK
# B12: traf2_out_1_158_917 (protein)
# chain: DTKKNLMLSVIELVGDFEIDSARDNGDEETAKKLEEFSKEVLEKAKELLFKENKSAEEVIEEIKKLAEEKKKEVDEETAKRIDRMTRKIVSGIKQVDKLM
# B13: traf2_out_19_16_1963 (protein)
# chain: GREEVEEALKEAKERLKEAEKLLEDVKKNIDKLSRDELMDIIVDASEKKREIQERLRRLKEEHPEEEELLKEVEEEAEKALKVLQKTMNLAVDKYLELLK
# B14: traf2_out_9_17_2612 (protein)
# chain: SAEEEKLKEKTLEAIKEVLKELVEKGYITEEEAEEILKKVKELIEKGASVDEIIATFLGDVASILLTKSNLSLSEANKIVGEAYKKLREKLAEIKKELAA
# B15: traf2_out_16_104_1391 (protein)
# chain: AAARRAEFEAIAARLEAIAEEAGRIANRLYELYEKADAERKTELSDLLVEASELRRRALEAALAVRAALATGGDLAAARATLEELEAELERIRERARELE
# B16: traf2_out_17_178_1711 (protein)
# chain: SKEKAREEISKATDEMIDLAEEAAARLLEIAEREGSLSPEELAALRRARRLGSARTTLALMERAIPRSASAEEVQALLDEFKAEYRKLSKKIAEALKKYE
# B17: traf2_out_3_89_2299 (protein)
# chain: MEEEERKIEEARERAERYAEGFRKSLTFVAKQMIKDGMSLETLKGVAEAARDALVEVFRERLKELGLSEETIEELVKELREKLEKIVEEIIAEAEAKRKA
# B18: traf2_out_11_104_651 (protein)
# chain: LTREQAREFNDFAMEQRDRAHAIGAAVAATLAAAGHTAEAAAVTAALNDPGAGISTLRNLLEELRPRLDPASQAVADAAIAELRALQQEASDKLNELEAE
# B19: traf2_out_20_3_2064 (protein)
# chain: SELEEELEEELERALELLEEAAEAADPETAARLEELRERLEASRELSYDDRLVELSEIRRELLELAEEARARGDEELARLLEEAADALNRAMQLTYQIIQ
# B20: traf2_out_11_155_734 (protein)
# chain: SARREAQRAINDHALEIGDELVKYVKEIIKKVAEKNPEDAKKLEEIFNKHLKFSNRSAALAVADKLKELGYEEEAKELEKKIEEANKEASAFVKEVEAKL
# B21: traf2_out_15_17_1303 (protein)
# chain: KISPEDARALTDKALEARDQAKALVAEVLATLTAKGKLTPEQKAELEALLAEPGVSLHVYRDRITAILEAAGEEELKKEATAKLDALIDDVNALANKVLA
# B22: traf2_out_8_144_2540 (protein)
# chain: HMTKRELANELANVLVELDELKELADEETKEVLTKARREVGQALNLVVFGGEKEEILKELEEAAKYLKEAIKLVEDNEELKKKAEEALKKVKEIIKDVKE
# B23: traf2_out_13_95_1150 (protein)
# chain: SAETAKKIMEVADEMVDKVIEILEKLLEEAKKKGIPTEPIQEALDLAKYRSINEAIHKLEELAKEYPEMKEELEKAIKEIKAIRREAGRKVAEIIKEEKA
# B24: traf2_out_6_156_2410 (protein)
# chain: MVDAIFKEALEKIEKEIKKLSEASEEKKIKYISNIAGTVYRALQQLRDAGASLAEIEAFAKKLKAEIEKKLKEAGLPEDTINLVLSSINAVFDVAIADAK
# B25: traf2_out_1_27_998 (protein)
# chain: SDEEFRALLRELDRAIARLSFEEALEAVREAIRRALEIGIGDAEHAAVVAVLSLSEEEEVERVLEVIREVLEEEGVSEEEIERIERKARTGFELLQKALA
# B26: traf2_out_20_38_2040 (protein)
# chain: EEEKEEEERLLEIAKKATEVADKTEAWVEEKLAAGVSPEEIIAETKKLITEKLAAIGKEEEAKELIERLDTLAAAGEVRRGVVLVMARAAAIVYQKEQEE
# B27: traf2_out_17_178_1660 (protein)
# chain: TKEEYRKKISELTDKLIDLAEKAAQKALELLEAEGDASEEELAQLREAQRRGSANDVKALIKRWIPKSSNSEELQALLDEFEKEYRKLSKEIAEAYKKYE
# B28: traf2_out_18_64_1955 (protein)
# chain: SELDEEIDRLVDEMDERRRLRLALARALQARAAADPAWQPLLDYFHAHVNDIGAAGARRMLALLAAGAPPAELRAVMEEDLGEGRELQRRLAELLEKREK
# B29: traf2_out_20_3_2069 (protein)
# chain: EELLKEAEKELEKAIKLLKEAAKKADKETAKKLKKLIEKLKKSKELSVDDRLVVVSEVRREVRELAEKAKKAGKEELAKILEKAAEELNRAAQLLYKILE
# Target: T1, TRAF2, Q12933
# Assay: median log2 fold change of GCK-ALFA target abundance (FLAG IP / Myc IP barcode read proportion) (log2 ratio); each designed protein is fused to an ALFA-tag nanobody in HEK293 cells to bring the named protein to FLAG-tagged glucokinase (GCK); Myc marks an untargeted standard; higher = target protein stabilised (more abundant)
# Conditions: target protein: 3xFLAG-MCP-GCK-ALFA reporter; HEK293 landing pad (RPLP)
# Summary of the method: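 An ALFA-nanobody-fused binder library was recombined into HEK293 landing-pad cells and induced with 2 μg mL^−1 doxycycline. Cells were transfected with a plasmid expressing a FLAG-tagged target and a Myc-tagged standard. After 48 h, lysates underwent anti-FLAG and anti-Myc immunoprecipitation, and circular RNA barcodes were reverse transcribed, amplified and sequenced. Target abundance is the per-binder median log2 ratio of FLAG to Myc barcode read proportions. Barcodes needed ≥10^−7 proportion in both replicates, binders ≥3 barcodes per replicate, and a 10^−6 pseudocount was added; the two replicates were pooled.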
row,Binder,median log2 fold change
1,B1,0.0835
2,B2,-0.562
3,B3,-0.0456
4,B4,0.154
5,B5,-0.272
6,B6,0.217
7,B7,0.0988
8,B8,0.184
9,B9,0.167
10,B10,-0.221
11,B11,0.217
12,B12,-0.296
13,B13,-0.566
14,B14,0.347
15,B15,0.135
16,B16,-0.378
17,B17,-0.669
18,B18,0.306
19,B19,0.123
20,B20,0.0774
21,B21,0.211
22,B22,-0.00265
23,B23,-0.837
24,B24,0.298
25,B25,-0.273
26,B26,0.281
27,B27,-0.0358
28,B28,0.163
29,B29,0.339

# Source: the supplement of paper PMC12632987
